Measurements published in PubChem BioAssay AID1346428 (National Center for Advancing Translational Sciences (NCATS), 2018).
Several values for one entry are separate records, joined by “and”; a condition that tells them apart may be missing. Equal entries are not always repeated. In all, about 48,000 compounds went through this assay and about 1,200 (2.5%) were called active. Roughly 2% stayed inconclusive and do not appear here.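 Rule for the calls: active = activation of at least 60% and not above a set upper limit (about 1 call in 100 departs from these limits); inconclusive = activation of 40% to 60%, or above that upper limit; inactive = activation under 40%.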 The list shows a part of the results.

Each molecule was assayed against Probable G-protein coupled receptor 32 (Homo sapiens) (UniProt O75388) (assay: qHTS for Agonists of Human Resolvin D1 Receptor DRV1). Conditions: CHO-K1 GPR32 beta-arrestin PathHunter luminescence, 90 min; at 76.9 µM; hits give high values; zero percent set by DMSO-only wells.
Sequence of UniProt O75388 (O75388 whole entry, looked up): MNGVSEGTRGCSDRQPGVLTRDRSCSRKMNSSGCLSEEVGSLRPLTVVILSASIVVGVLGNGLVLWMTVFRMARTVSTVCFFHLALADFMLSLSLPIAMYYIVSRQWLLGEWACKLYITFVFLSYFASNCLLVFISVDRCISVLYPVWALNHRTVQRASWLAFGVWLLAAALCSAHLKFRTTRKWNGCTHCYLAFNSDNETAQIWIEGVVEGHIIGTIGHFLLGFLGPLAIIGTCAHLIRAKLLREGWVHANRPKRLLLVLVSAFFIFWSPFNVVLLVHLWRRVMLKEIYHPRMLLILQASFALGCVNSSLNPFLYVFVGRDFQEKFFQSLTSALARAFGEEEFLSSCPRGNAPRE
Outline: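 Step 1: seed CHO-K1 GPR32 beta-arrestin cells, 2,500/well, overnight at 37 °C. Step 2: add compounds, 90 min at 37 °C. Step 3: detection reagent, 1 h ambient, then luminescence.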
Note: 0% is about no effect.

SMILES	activation
CCOC(=O)c1c(NC(=O)/C=C/c2ccc(C(C)C)cc2)sc2c1CCC2	inactive: 35.6%
Cc1ccc(C(=O)CC2(O)C(=O)N(Cc3ccccc3F)c3ccccc32)cc1 (configuration not stated)	inactive: -13.3%
COc1cccc(NC(=O)CSc2nc3ccc(NC(=O)c4cccs4)cc3s2)c1	active: 95%
Cc1ncc([N+](=O)[O-])n1CCO	inactive: -3.92%
CCc1ccc(OC(C)c2nc(-c3ccc(-n4cccc4)cc3)no2)cc1 (configuration not stated)	inactive: -9.26%
COC(=O)Nc1nc2ccc(C(=O)C3CC3)cc2[nH]1	inactive: 10.6%
CNS(=O)(=O)c1cn(CC(=O)N2CCN(c3ccccc3F)CC2)cc1S(=O)(=O)NC	inactive: -15.2%
C[C@@]12C(=O)OC(=O)[C@]1(C)C1CCC2O1	inactive: -6.68%
CCOc1ccc(CCNc2ncnc3onc(-c4ccc(Cl)cc4)c23)cc1OCC	inactive: -5.44%
COCc1nc2cccnc2n1C1CCN(S(=O)(=O)N(C)C)CC1	inactive: -7.84%
O=S(=O)(NCc1csc(-c2ccccc2)n1)c1cccc(F)c1	inactive: -15.6%
OC(CCN1CCCCC1)(c1ccccc1)C1CC2C=CC1C2 (configuration not stated)	inactive: 27.6% and inactive: -3.4%
COc1ccc(NC(=O)C(c2ccc(C)cc2)N(C)C(=O)/C=C\c2ccc3c(c2)OCO3)cc1 (configuration not stated)	inactive: -25.8%
COc1cccc(C2=C(C(C)=O)Sc3nncn3N2C(C)=O)c1	inactive: -58.3%
CCOC(=O)c1ccc(NC(=O)CCc2c(C)nc3c(c(C)nn3-c3ccccc3)c2C)cc1	inactive: -1.45%
CC[C@@H](C)[C@H]1O[C@]2(CC[C@H]1C)C[C@@H]1C[C@@H](CC=C(C)[C@@H](O[C@H]3C[C@H](OC)[C@@H](O[C@H]4C[C@H](OC)[C@@H](O)[C@H](C)O4)[C@H](C)O3)[C@@H](C)C=CC=C3CO[C@@H]4[C@H](O)C(C)=C[C@@H](C(=O)O1)[C@]34O)O2	inactive: -19%
Cc1ccc(CN(Cc2ccco2)C(=O)COc2ccccc2C)cc1	inactive: 5.98%
CC(C)C(NS(=O)(=O)c1ccc2c(c1)oc(=O)n2C)C(=O)N1CCN(c2cccc(Cl)c2)CC1 (configuration not stated)	inactive: -1.7%
CCN(CC)C(=O)c1ccc2c(c1)N(Cc1c(F)cccc1Cl)C(=O)c1ccccc1S2	inactive: -8.87%
COc1ccc(NC(=O)C(Cc2c[nH]c3ccccc23)NC(=O)OC(C)(C)C)cc1 (configuration not stated)	inactive: -5.78%
COC(=O)Cn1c(=NC(=O)c2ccc3c(c2)OCCO3)sc2ccccc21	inactive: -14.1%

SMILES	activation
COc1ccc(N2CC(NC(=O)c3cccs3)CC2=O)cc1 (configuration not stated)	inactive: -4.62%
O=C(CSc1nc(=O)[nH]c2c1CCCC2)Nc1ccc(Cl)c(Cl)c1	inactive: -7.36%
CCN(CC)S(=O)(=O)c1ccc(NC(=O)c2cc3ccc4cccnc4c3[nH]2)cc1	inactive: -4.52%
Cc1ccc(-n2nc(C(=O)Nc3ccc(F)cc3Cl)c(=O)n(C)c2=O)cc1	inactive: -3.02%
CN(Cc1ccccc1)c1nnc(NC(=O)Nc2cccc(Br)c2)s1	inactive: -5.69%
Cc1cc(N2CCN(C)CC2)nc2ccc(NC(=O)c3ccc(C(C)(C)C)cc3)cc12	inactive: 15.8%
Cc1ccc(C(=O)n2nc(C)c(S(=O)(=O)N3CCCCCC3)c2C)cc1C	inactive: -1.32%
COc1ccc(Cn2c(=O)n(-c3ccc(F)c(Cl)c3)c(=O)c3c2c2cc(OC)ccc2n3C)cc1	inactive: -7.93%
COc1ccc(CNC(=O)c2nc(SCc3ccc(C)cc3)ncc2Cl)cc1	inactive: -26.2%
CCc1nnc(NC(=O)CSc2nccn2Cc2ccc(C)cc2)s1	inactive: -11.8%
COc1ccccc1NC(=O)CSc1nc(O)c(C/C=C/c2ccccc2)c(=O)[nH]1	inactive: -9.17%
CCOc1cccc2sc(N3CCN(C(=O)c4ccc5c(c4)CCCC5)CC3)nc12	inactive: -30.2%
CCOC(=O)c1c(S(=O)(=O)N2CCC(C(=O)NCc3cccc(C)c3)CC2)c(C)n(C)c1C	inactive: 7.36%
CC1CCCCN1c1c(S(=O)(=O)c2ccc(Cl)cc2)cnc2ccccc12 (configuration not stated)	inactive: -36.2%
Cc1ccc(CCNC(=O)c2sc3ncccc3c2-n2c(C)ccc2C)cc1	inactive: 0.895%
COc1cccc(C2=CC(c3ccccc3F)n3ncc(C(=O)Nc4ccc(C)cc4)c3N2)c1 (configuration not stated)	inactive: -1.61%
CCC(=O)Nc1ccc(CC)cc1-c1nc2ccccc2n(CC(=O)Nc2cccc(OC)c2)c1=O	inactive: -14.5%
Cc1cc(C)cc(-n2ccnc(NCCc3ccccc3)c2=O)c1	inactive: -13.2%
COc1ccc(-c2nc(CS(=O)CC(=O)NCCc3ccccc3)c(C)o2)cc1OC (configuration not stated)	inactive: -11%
CCOC(=O)c1cc2c(=O)n3ccccc3nc2n(CC(C)C)c1=NC(=O)COc1ccc(Cl)cc1	inactive: -13.7%
COc1ccc(C(=O)Nc2ccc3nc4c(c(Nc5ccc(OC)c(OC)c5)c3c2)CCCC4)c(OC)c1	inactive: 35%

SMILES	activation
Cc1ccc(C)c(N2CCN(C(=O)c3cnn(C(C)(C)C)c3C3CCN(C(=O)OC(C)(C)C)CC3)CC2)c1	inactive: -9.05%
Cc1ccc2oc(C(=O)Nc3ccc(S(=O)(=O)N4CCCC(C)C4)cc3)cc(=O)c2c1 (configuration not stated)	inactive: 10.6%
CCn1cc2nc(SCc3cccc(C(F)(F)F)c3)n(Cc3ccc(Cl)cc3)c(=O)c2n1	inactive: -11.2%
COc1ccc(OC)c(NC(=O)CCCc2nnc3n(C(C)C)c(=O)c4sccc4n23)c1	inactive: -11.7%
COc1ccc(C)cc1NC(=O)N1CCC(CN2CCOCC2)CC1	inactive: -13.4%
Cc1ccc(N(CC(=O)N2CCN(c3cccc(Cl)c3)CC2)S(=O)(=O)c2c(C)noc2C)cc1	inactive: -12.7%
CCc1ccc(-n2c(=O)c3ccccc3n(CC(=O)NCCc3ccc(OC)c(OC)c3)c2=O)cc1	inactive: -7.86%
COc1ccc(Cl)cc1NC(=O)NCCn1c(=O)oc2ccc(C)cc21	inactive: -54.6%
Cc1ccccc1NC(=O)c1c(NC(=O)c2ccccc2)sc2c1CCC2	inactive: -0.0566%
Cn1cc(S(C)=O)c(=O)c2ccc(F)cc21 (configuration not stated)	inactive: -12.3%
Cc1ccc2cc3cc(C(=O)N4CCN(c5ccc(Cl)cc5)CC4)oc3nc2c1	inactive: 0.622%
CCOc1ccc(NC(=O)CC2C(=O)N(c3ccccc3)C(=O)N2CCc2cccs2)cc1 (configuration not stated)	inactive: -10.5%
COc1ccc(-c2cn3nc(N4CCC(C(=O)Nc5ccccc5OC)CC4)sc3n2)cc1	inactive: -0.151%
CCN(CC)C(=O)c1sc2c(c1C)c(=O)n(-c1ccccc1)c(=O)n2Cc1c(C)cc(C)cc1C	inactive: -36.1%
O=S(c1cc(Cl)cc(Cl)c1O)c1cc(Cl)cc(Cl)c1O	inactive: 4.93%
COc1ccc(-n2nc3ccc(NC(=O)c4ccc(C#N)cc4F)cc3n2)cc1Cl	inactive: -11.3%
O=C(COc1ccccc1Cl)Nc1nnc(S(=O)(=O)N2CCCC2)s1	inactive: 9.35%
Cc1ccc(NC(=O)CCc2c(C)nn(-c3ccc(N4CCOCC4)nn3)c2C)c(C)c1	inactive: 7.73%
CCOc1ccccc1NC(=O)C(CC(C)C)NC(=O)C1CCC(C)CC1 (configuration not stated)	inactive: -12.7%
COc1cccc2c1cc1c(=O)n(CC(=O)N3CCN(c4cccc(C(F)(F)F)c4)CC3)nc(C)n12	inactive: -2.29%
CCCCN(CC)C(=O)CSc1nc2n[nH]c(C)c2c(=N)n1-c1cccc(C)c1	inactive: -13.7%

SMILES	activation
CC(Oc1c(Cl)cccc1Cl)C1=NCCN1 (configuration not stated)	inactive: -25.7%
COc1cccc2sc(NC(=O)CS(=O)(=O)c3ccc(C)cc3)nc12	inactive: -3.15%
CCOc1ccc(NC2SC(=O)N(Cc3ccccc3)C2=O)cc1 (configuration not stated)	inactive: -43.7%
COc1ccc(Cn2c(CO)cnc2SCC(=O)Nc2ccc3c(c2)OCCO3)cc1	inactive: 20.7%
COc1cccc(COC(=O)c2ccc(-c3nnn(Cc4cccc(OC)c4)n3)cc2)c1	inactive: -0.15%
O=C(Nc1cccs1)Nc1ccc(F)cc1F	inactive: -10.4%
O=C(O)Cn1c(-c2cccs2)cc2cc(Cl)ccc21	inactive: -25.2%
O=C(Nc1cccc(C(F)(F)F)c1)c1cc(-c2ccc(Cl)s2)nc2ccccc12	inactive: -8.12%
Cc1ccc(S(=O)(=O)n2nc(-c3ccc(Cl)cc3)nc2NCc2ccccc2)cc1	inactive: 2.35%
Cn1c(-n2cccc2)c(-c2c(-c3ccc(F)cc3)[nH]c3c2c(=O)n(C)c(=O)n3C)c(=O)n(C)c1=O	inactive: -13.1%
COCCCNC(=O)Cn1nc(N2CCN(c3ccccc3)CC2)ccc1=O	inactive: -3.08%
CCCSc1oc(-c2ccco2)nc1S(=O)(=O)c1ccc(Br)cc1	inactive: -22.3%
COCCn1ccc2c(OCC(=O)Nc3c(C)cc(C)cc3C)cccc2c1=O	inactive: -10.5%
CC(=O)N1CCc2c(sc3c2c(=O)n(-c2ccc(F)cc2)c(=O)n3Cc2ccc(C#N)cc2)C1	inactive: -2.19%
CN(C)CC/C=C1\c2ccccc2COc2ccccc21	inactive: -2.14%
CC1CCc2c(sc3nnn(Cc4cccc(C(=O)OC(C)C)c4)c(=O)c23)C1 (configuration not stated)	inactive: -10.2%
COc1ccc(CC(=O)Nc2cc(-c3cn4cccnc4n3)ccc2C)cc1OC	inactive: -11.8%
CCn1c(C(=O)NCc2ccccc2OC)cc2sccc21	inactive: -15.4%
CCOc1ccccc1CNC(=O)C1CCN(S(=O)(=O)c2c(C)noc2/C=C/c2ccccc2F)CC1	inactive: -5.45%
